# This is one part of the list.
# Tested on: HepG2
# Assay: cytotoxicity call (relative viability < 0.9)
# Conditions: 10 µM
row,Compound,cytotoxicity call
1,C[C@@H]1CN([C@H](C)CO)C(=O)c2cc(NC(=O)Nc3ccc(F)cc3)ccc2O[C@@H](C)CCCCO[C@@H]1CN(C)Cc1ccc(C(F)(F)F)cc1,inactive
2,CC1(C)CC[C@]2(C(=O)O[C@@H]3O[C@H](CO)[C@@H](O)[C@H](O)[C@H]3O)CC[C@]3(C)C(=CC[C@H]4[C@@]5(C)CC[C@@H](O[C@@H]6O[C@H](C(=O)O)[C@@H](O[C@@H]7OC[C@@H](O)[C@H](O)[C@H]7O)[C@H](O[C@@H]7OC[C@](O)(CO)[C@H]7O)[C@H]6O)C(C)(C)[C@@H]5CC[C@]43C)[C@@H]2C1,inactive
3,C[C@@H]1CN([C@@H](C)CO)S(=O)(=O)c2ccc(/C=C/c3ccccc3)cc2O[C@@H]1CN(C)C(=O)Nc1cc(F)ccc1F,inactive
4,COc1ccc(NC(=O)N(C)C[C@H]2Oc3ccc(NC(=O)CCCCCC(=O)Nc4ccccc4N)cc3CC(=O)N([C@@H](C)CO)C[C@H]2C)cc1,inactive
5,C[C@@H]1CN([C@@H](C)CO)C(=O)Cc2cc(NS(C)(=O)=O)ccc2O[C@@H]1CN(C)S(=O)(=O)c1ccc(Cl)cc1,inactive
6,Cc1noc(C)c1NC(=O)Nc1cccc2c1O[C@H](CN(C)Cc1ccc(Oc3ccccc3)cc1)[C@H](C)CN([C@H](C)CO)C2=O,inactive
7,C[C@@H]1CCCCO[C@@H](CN(C)C(=O)c2ccccc2)[C@H](C)CN([C@@H](C)CO)C(=O)c2cc(NC(=O)Nc3cccc4ccccc34)ccc2O1,inactive
8,C[C@@H]1CN([C@@H](C)CO)C(=O)c2cc(NC(=O)Cc3cn(C)c4ccccc34)ccc2O[C@H]1CN(C)Cc1ccc(C(=O)Nc2ccccc2N)cc1,inactive
9,CCCC(=O)Nc1ccc2c(c1)C(=O)N(C)[C@H]1CC[C@@H](CC(=O)NCCN3CCCCC3)O[C@@H]1CO2,inactive
10,CCOC(=O)Cn1c(=O)c(C(N)=S)cn(C(C)C)c1=O,inactive
11,C[C@@H]1CN([C@H](C)CO)C(=O)c2cc(NC(=O)Cc3ccccc3)ccc2O[C@@H](C)CCCCO[C@H]1CN(C)C(=O)Nc1ccc(F)cc1,inactive
12,C[C@@H]1CN([C@H](C)CO)C(=O)c2cc(NC(=O)Nc3cccc4ccccc34)ccc2O[C@@H](C)CCCCO[C@@H]1CN(C)S(=O)(=O)c1cccs1,inactive
13,Cc1noc(C)c1NC(=O)N(C)C[C@H]1OCCCC[C@@H](C)Oc2ccc(NC(=O)Cc3ccccc3)cc2C(=O)N([C@H](C)CO)C[C@H]1C,inactive
14,C[C@@H]1CN([C@H](C)CO)S(=O)(=O)c2ccc(C#CC3CCCCC3)cc2O[C@H]1CN(C)C(=O)Cc1ccncc1,inactive
15,C[C@@H]1CCCCO[C@H](CN(C)S(=O)(=O)c2ccc(F)cc2)[C@@H](C)CN([C@@H](C)CO)C(=O)c2cc(NC(=O)Nc3ccc(F)cc3)ccc2O1,inactive
16,CC(C)NC(=O)Nc1ccc2c(c1)C(=O)N(C)[C@H]1CC[C@@H](CC(=O)NCc3ccc(F)cc3)O[C@@H]1CO2,inactive
17,COc1ccc(C#Cc2ccc3c(c2)O[C@@H](CN(C)C(=O)c2ccccn2)[C@@H](C)CN([C@H](C)CO)S3(=O)=O)cc1,inactive
18,C[C@@H]1CN([C@H](C)CO)C(=O)c2cc(NC(=O)Nc3ccccc3)ccc2O[C@@H](C)CCCCO[C@H]1CN(C)S(=O)(=O)c1cccs1,inactive
19,NCC(=O)NCC(=O)O,inactive
20,C[C@H]1CCCCO[C@@H](CN(C)S(=O)(=O)c2cccs2)[C@@H](C)CN([C@@H](C)CO)C(=O)c2cc(NC(=O)Nc3ccc4c(c3)OCO4)ccc2O1,inactive

row,Compound,cytotoxicity call
1,CSC[C@H]1O[C@H](n2ccc3c(N)ncnc32)[C@@H](O)[C@H]1O,inactive
2,C[C@H](CO)N1C[C@H](C)[C@@H](CN(C)Cc2ccc(F)cc2)Oc2cc(C#CC(C)(C)O)ccc2S1(=O)=O,inactive
3,O=C(C[C@@H]1CC[C@H]2[C@@H](COC[C@H](O)CN2S(=O)(=O)c2ccccc2)O1)NCc1ccc(-c2ccccc2)cc1,inactive
4,O=C(C[C@H]1CC[C@H](NC(=O)CN2CCOCC2)[C@H](CO)O1)NC1CCC1,inactive
5,C[C@H]1CN([C@@H](C)CO)C(=O)Cc2cc(NS(=O)(=O)c3ccc(F)cc3)ccc2O[C@@H]1CN(C)S(=O)(=O)c1ccc(F)cc1,inactive
6,COc1ccc(S(=O)(=O)Nc2ccc3c(c2)C(=O)N([C@@H](C)CO)C[C@H](C)[C@@H](CN(C)S(=O)(=O)c2cn(C)cn2)OCCCC[C@H](C)O3)cc1,inactive
7,C[C@@H]1CN([C@@H](C)CO)S(=O)(=O)c2ccc(-c3ccc(C(=O)N(C)C)cc3)cc2O[C@H]1CN(C)C(=O)Cc1ccccn1,inactive
8,Cc1ccc(S[C@]2(C(=O)NCC(C)C)CC(=O)N(Cc3cc(C(F)(F)F)cc(C(F)(F)F)c3)[C@@H]2c2ccc(CO)cc2I)cc1,inactive
9,CCCN(C)C[C@H]1OCCCC[C@H](C)Oc2ccc(NC(=O)Cc3ccccc3)cc2C(=O)N([C@H](C)CO)C[C@H]1C,inactive
10,C[C@@H]1CN([C@@H](C)CO)C(=O)c2cc(NC(=O)Nc3ccc(C(F)(F)F)cc3)ccc2O[C@@H](C)CCCCO[C@H]1CN(C)Cc1ccc2c(c1)OCO2,active
11,C[C@@H]1CCCCO[C@H](CN(C)S(C)(=O)=O)[C@H](C)CN([C@@H](C)CO)C(=O)c2cc(NS(=O)(=O)c3cn(C)cn3)ccc2O1,inactive
12,COc1ccc2c(c1)OCC(Cc1ccc(OC)c(O)c1)C2=O (stereo not given),active
13,C[C@@H]1CN([C@H](C)CO)C(=O)c2cc(NC(=O)Nc3cccc4ccccc34)ccc2O[C@@H]1CN(C)Cc1ccc2c(c1)OCO2,inactive
14,CC(C)CC#Cc1cnc2c(c1)C(=O)N([C@@H](C)CO)C[C@@H](C)[C@@H](CN(C)S(=O)(=O)c1cccs1)O2,inactive
15,Cc1noc(C)c1NC(=O)Nc1ccc2c(c1)C(=O)N([C@@H](C)CO)C[C@H](C)[C@H](CN(C)Cc1ccc(C(F)(F)F)cc1)O2,inactive
16,C[C@H](CO)N1C[C@H](C)[C@@H](CN(C)C(=O)CCCN(C)C)OCCCC[C@H](C)Oc2ccc(NC(=O)Nc3ccc(F)cc3)cc2C1=O,inactive
17,C[C@@H]1CN([C@@H](C)CO)C(=O)c2cc(NS(=O)(=O)c3ccc(F)cc3)ccc2O[C@H]1CN(C)Cc1ccncc1,inactive
18,COc1cccc(CNC(=O)C[C@H]2C=C[C@H](NC(=O)C3CCOCC3)[C@H](CO)O2)c1,inactive
19,C[C@@H]1CCCCO[C@@H](CN(C)S(=O)(=O)c2cn(C)cn2)[C@@H](C)CN([C@@H](C)CO)C(=O)c2cc(NC(=O)CCCN(C)C)ccc2O1,inactive
20,C[C@@H]1CCCCO[C@@H](CN(C)C(=O)Nc2cccc3ccccc23)[C@H](C)CN([C@@H](C)CO)C(=O)c2cc(N(C)C)ccc2O1,inactive

# Reference: the antibiotic and cytotoxicity screens of Wong et al. (2023)
